Assay results reported in the BET-seq Pho4 binding data (Le et al. 2018).
The list shows a part of the results. The energies were worked out here from pooled read counts, against the library average; single values are noisy.

Target: T1, Pho4 (S. cerevisiae) (UniProt P07270)
T1 sequence: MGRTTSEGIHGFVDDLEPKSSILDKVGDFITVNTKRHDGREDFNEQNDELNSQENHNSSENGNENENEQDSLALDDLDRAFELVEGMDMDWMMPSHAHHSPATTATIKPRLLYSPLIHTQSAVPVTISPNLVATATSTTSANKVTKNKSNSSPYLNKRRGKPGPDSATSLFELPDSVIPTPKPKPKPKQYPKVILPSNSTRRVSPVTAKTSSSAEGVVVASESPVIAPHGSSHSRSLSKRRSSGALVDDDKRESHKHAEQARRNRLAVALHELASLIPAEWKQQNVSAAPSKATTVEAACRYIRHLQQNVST
Assay: relative binding free energy (BET-seq); higher = weaker binding
Conditions: reference: library average

Sequence	relative binding free energy [kcal/mol]
TAGAGCACGTGAGGGC	0.09
GGTATCACGTGAAAGG	0.5
GGGAACACGTGTTAGT	0.09
GAAGTCACGTGACTGG	0.39
ACGGACACGTGGGTAG	0.01
GGCTGCACGTGGAGCG	0.06
ATATGCACGTGGGGTC	-0.38
TAAATCACGTGCGTGA	0.17
AATGGCACGTGCGTAT	-0.25
CGGGTCACGTGTTTGT	0.08
TCCGGCACGTGTTTGT	0
TTGGGCACGTGGCAGA	-0.09
GACTTCACGTGGTATG	0.26
TGAAGCACGTGTATAG	-0.01
GTATGCACGTGAGTGA	0.18
GCTGCCACGTGGTGGG	-0.15
GGGGACACGTGTTGGT	0.08
TAGTGCACGTGCTAGG	-0.08
GAAGGCACGTGGGCGT	-0.26
TCGTACACGTGATGGA	0.34
AGTGGCACGTGTGTAC	-0.19
TTTAGCACGTGGGTGT	-0.11
ATGTTCACGTGATTGA	0.34
GTGTACACGTGCGTTA	0.05
TAGTACACGTGCGCGG	-0.04
TTTGGCACGTGTGACT	0.09

Sequence	relative binding free energy [kcal/mol]
GTACGCACGTGATGTG	0.01
TGAAGCACGTGCGATG	-0.07
TGGTTCACGTGTCCGT	0.37
CTTTTCACGTGTCGTA	0.29
AAGGTCACGTGAGTGT	0.33
TGGGTCACGTGAATAT	0.35
CGTCGCACGTGGGGTT	-0.26
CTTGCCACGTGTGTTT	-0.16
ATTAACACGTGGTGAT	-0.1
TGCTTCACGTGGTGGA	0.18
TGTTTCACGTGCATCT	0.21
GGTTACACGTGGATTT	0.18
TGTTTCACGTGCGCTA	0.19
TAGTACACGTGGCGGC	0.02
TGGAGCACGTGGGGTA	-0.2
ATGTACACGTGCGGTG	0.01
ATAATCACGTGTGATG	0.05
TTGAGCACGTGAAGGC	0.14
GAGAGCACGTGGATAG	0.05
GATCGCACGTGTTGGA	0.09
GTGCGCACGTGGGTTC	-0.23
TTCAGCACGTGTGTTA	-0.07
AGTTGCACGTGGCATG	-0.14
CCGGTCACGTGTGTGT	0.08
GTCTCCACGTGGGTTG	-0.03
CTGGCCACGTGAGTTG	0.08

Sequence	relative binding free energy [kcal/mol]
ATTTTCACGTGATGGC	0.33
GTAGTCACGTGAGTGG	0.21
CTGCGCACGTGGGAGG	-0.33
TTATTCACGTGGCCTG	0.36
TACGTCACGTGGGTGA	-0.1
TTAGTCACGTGAATTG	0.31
TTGGGCACGTGTAAAT	-0.02
TATGACACGTGTGATT	0.04
AGATTCACGTGGCGGT	0.2
GTTGCCACGTGGGTAC	-0.14
GTTTTCACGTGTTAGG	0.34
TAACGCACGTGTAGGC	0.19
AATTTCACGTGTCGTT	0.23
TAAAGCACGTGTTTGT	-0.12
GTGGCCACGTGTTTAA	0
ATATTCACGTGCTTAT	0.19
GGTAGCACGTGATGGG	0
GGTTGCACGTGTGGTC	-0.01
GTAGGCACGTGAAGCG	0.15
TGTGTCACGTGAAGAA	0.15
TGGTTCACGTGTTTAC	0.3
GCGTACACGTGTGCGT	0.21
AGGTTCACGTGATTTT	0.41
GATGGCACGTGTGGTA	0.02
GGGGGCACGTGAAGGT	0.17
TGATACACGTGGTTCT	-0.08

Sequence	relative binding free energy [kcal/mol]
GAGATCACGTGGAGTT	0.28
CGGTTCACGTGGTCGG	0.1
TATAACACGTGATAGG	0.04
GGTATCACGTGATCGT	0.22
AGTATCACGTGTAGTA	0.09
TCTGTCACGTGAAATG	0.36
GTATGCACGTGACTGT	-0.06
ATTTACACGTGCGGGA	0.11
GGAAACACGTGTATGG	0.02
TTCGTCACGTGGCAGT	0.05
TTCGTCACGTGGTATT	0.05
CGTCACACGTGGGGGG	-0.23
ATATCCACGTGAGGGT	0.16
GAGTGCACGTGCGTGG	-0.1
TGGGGCACGTGTAGAA	0.02
TTGCACACGTGGTTGC	0.05
TGGTACACGTGGACGG	0.08
ATTTCCACGTGAGTTT	0.23
ATTCTCACGTGTTAAT	0.29
ATGTGCACGTGGCCAG	-0.08
TGCAACACGTGTAGTT	0.09
GTTGACACGTGGTTTA	0.07
TCGGACACGTGGAGGT	0.1
GGGATCACGTGTAGTG	0.23
GTATGCACGTGATTGA	0.17
TATCACACGTGTAAGT	0.26

Sequence	relative binding free energy [kcal/mol]
GGAGGCACGTGGCAAG	-0.17
TTATCCACGTGGGTTT	-0.08
GGGGACACGTGATGCT	0.18
TTTGCCACGTGATTTA	0
TCGGTCACGTGGGCTA	-0.02
AGTGACACGTGTGTTG	0.02
AGTTTCACGTGTTAAT	0.29
TGTCGCACGTGGTGGG	-0.08
CGGTGCACGTGGACGT	0.04
TTGCTCACGTGTTTGA	0.11
ATATGCACGTGTTTTC	0
GAAGGCACGTGCTGTT	-0.07
GGTATCACGTGACAGG	0.26
ACTGGCACGTGGTATT	-0.19
AAAGACACGTGGGGTT	-0.05
GTGAGCACGTGAGGGT	0.17
AGGCGCACGTGGGCGG	-0.29
GGTTTCACGTGTTTCA	0.41
ATGTTCACGTGATCTA	0.27
TGGGGCACGTGCAGGC	-0.25
TATAACACGTGGAGTA	0.02
TAAGGCACGTGGGCGG	-0.33
GCGTACACGTGGGTCG	0.08
TTATTCACGTGTTCAT	0.32
TTAAGCACGTGTAAGG	-0.03
GAGTGCACGTGGGCTC	-0.05

Sequence	relative binding free energy [kcal/mol]
TCGGCCACGTGGGGAG	-0.26
TATGCCACGTGTGTTG	-0.18
TTGATCACGTGTGAGG	0.27
GGCTGCACGTGGTAAA	0.18
GACGACACGTGGGGTG	0.06
TAATTCACGTGTGAAA	0.48
GGGGGCACGTGTGCCT	-0.25
CGTTTCACGTGAAGTG	0.35
CGTAACACGTGGGTGG	-0.22
ATAGTCACGTGCATTT	0.06
TTACACACGTGGGGGC	-0.02
TTGCTCACGTGTAATG	0.23
TGATGCACGTGGGTCG	-0.14
GGGCGCACGTGTGTCA	0.06
ATGGTCACGTGTAAAA	0.2
AAGAACACGTGCAGTT	0.38
AAGGACACGTGCGTGA	0.04
TAAGGCACGTGAGGGA	0.21
GTTTTCACGTGATGGT	0.27
CAGATCACGTGTGTGG	0.24
GAGTTCACGTGTCAGG	0.24
AGTTCCACGTGGTGCG	0
GTAGACACGTGACGTG	0.09
AGGTGCACGTGGCCTG	-0.27
GCTGACACGTGAGTTT	0.45
AGTGACACGTGTCGTG	-0.02

Sequence	relative binding free energy [kcal/mol]
GTGCTCACGTGTCTGG	0.2
TTGATCACGTGTTAGG	0.14
AGTAACACGTGAGCGT	0.15
ATAGCCACGTGGAGGT	-0.08
ATTAGCACGTGTGGCG	-0.08
TTAAACACGTGGGAGT	-0.02
TTGTACACGTGTGAGG	0.31
TGGTTCACGTGGAAGT	0.42
GGTTCCACGTGAGGTG	0.27
AAGTGCACGTGATATA	0.08
GTTCGCACGTGGGAAA	0.01
TTCTGCACGTGGTGTG	-0.05
CTCTTCACGTGAGGTT	0.38
GTTCTCACGTGGTAGA	0.28
CGAAGCACGTGGAGGG	-0.07
AAGGTCACGTGCTAGG	0.19
GTAATCACGTGGATAT	0.16
TAAGGCACGTGACAGG	0.02
CCGTGCACGTGGTGGT	-0.07
GAGGGCACGTGTAATT	0.11
AGTGGCACGTGAGGCA	0.05
TTGTGCACGTGAACGT	0.14
CGAGGCACGTGTTGGA	0.08
TTTGCCACGTGTTGTC	0.06
TCAGGCACGTGGGTGA	-0.28
TTTGACACGTGAAGCT	0.27

Sequence	relative binding free energy [kcal/mol]
TGGAACACGTGTATAT	0.06
TTAAACACGTGGTGGT	-0.05
GGGCACACGTGGGGGT	0.04
ATTTTCACGTGGTCGG	0.19
GGTGGCACGTGCATGC	-0.15
GTGTTCACGTGATACT	0.24
TCTTGCACGTGTAGTA	-0.09
GTTCGCACGTGGGCTG	-0.35
TTGTTCACGTGGTAGA	0.19
TTTTTCACGTGGAAGT	0.27
AGCGTCACGTGGTTTT	0.1
GATAGCACGTGGGTTT	-0.07
AGGTGCACGTGTCAGT	-0.12
ATTGCCACGTGGATTT	-0.04
GAGGGCACGTGAGCTT	0.18
GATGACACGTGTTTGG	0.16
TGTGACACGTGGGCTC	-0.11
TGTGTCACGTGACTGT	0.17
GTTTGCACGTGGACGG	0.1
GTCGTCACGTGGTTGT	0.21
AGTATCACGTGCGGCG	0.05
TCAGTCACGTGAATGG	0.13
TTTATCACGTGAGAAA	0.47
GATTACACGTGGTTCG	0.19
TGTCTCACGTGGCTTT	0.05
ACGGGCACGTGGTATT	-0.25

Sequence	relative binding free energy [kcal/mol]
ATATTCACGTGCGATT	0.15
GTACTCACGTGGGTGA	-0.01
GTTTGCACGTGAGGGC	0.35
GATCGCACGTGTTTGT	0.04
TGGGGCACGTGGGGAC	-0.2
AGAGTCACGTGTGATT	0.14
AAGTCCACGTGGATGG	0.03
GGTTTCACGTGGGATA	0.24
GTTCACACGTGAGGCT	0.45
CGGGTCACGTGTCGTG	0.1
GAGCTCACGTGAGGTT	0.32
AGGAACACGTGGGCTT	-0.06
TTATTCACGTGCGGGT	0.18
CAGGGCACGTGGAGGG	-0.26
TGTCACACGTGGTTAG	0.13
CTTTTCACGTGGGACT	0.26
TTTATCACGTGAGGAT	0.34
ACGGTCACGTGGAGGC	0.1
AATTACACGTGTAGTA	-0.05
TGGCTCACGTGTATTG	0.18
TTGCGCACGTGGGTGT	-0.29
GGTGGCACGTGGCTGT	-0.1
